# The inconclusive results got no clear call from the source; some entries with a clear call stand among them for comparison. For some of these results: No potency is given beside an inconclusive call; the fits are too rough. Calls of active or inactive are those of the source. Unless noted, the call rests on the fitted dose curve; in most records, active means well fitted curve in the direction sought with a large enough effect in the repeat runs; inconclusive means weak or mixed curves; inactive means no such curve, though single readings can be large; an effect the other way counts as inactive or inconclusive.
# What was measured:
# [1] = molecular target: Androgen receptor (Homo sapiens) (UniProt P10275); assay: qHTS assay to identify small molecule agonists of the androgen receptor (AR) signaling pathway (AID 743036; active means well fitted activation curve with a large enough effect in the signal ratio in the repeat runs, with a control signal flat, not every such curve was filed as active; inconclusive means weak or mixed curves, or effect the other way; inactive means no such curve, though single readings can be large or run the other way; the % refers to the signal ratio; further: potency means the concentration at half of the fitted maximal effect; on activation: on the % scale 0 is the no-effect control and ±100 the full control effect); settings: HEK293 AR-UAS-bla GripTite, beta-lactamase FRET ratio, 16 h; activation: at 62.4 µM (top of the series) unless noted
# How it was run: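 Quantitative HTS of the Tox21 10K library in HEK293 cells bearing a stably integrated UAS-controlled beta-lactamase reporter. Compound exposure lasted 16 h at 37C. Reporter activity was detected by FRET substrate fluorescence after 2 h at room temperature.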
# [2] = qHTS assay to identify small molecule antagonists of the androgen receptor (AR) signaling pathway using the MDA cell line - cell viability counter screen (AID 743041; further: nearly all actives have a fitted effect of over 45% in size; further: potency means the concentration at half of the fitted maximal effect; on viability change, negative = cytotoxic: on the % scale 0 is the no-effect control and ±100 the full control effect); settings: MDA-kb2 viability, CellTiter-Fluor, 16 h, cells co-treated with R1881 androgen agonist; viability change, negative = cytotoxic: at 70.3 µM (top of the series) unless noted
# How it was run: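 Viability read by CellTiter-Fluor fluorescence in the same wells as the antagonist screen, added after 15.5 h of a 16 h, 37C exposure. Human breast carcinoma MDA-kb2 AR-luc cells, compounds co-dosed with agonist R1881.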
# [3] = system: thyroid hormone receptor (rat, GH3 cells); assay: qHTS assay to identify small molecule agonists of the thyroid receptor (TR) signaling pathway (AID 743066; calls by dose curve; further: on the % scale 0 is the no-effect control and ±100 the full control effect); settings: GH3.TRE-Luc cells, TR agonist luciferase, 24 h; activation: at 83.9 µM (top of the series) unless noted
# [4] = molecular target: Estrogen receptor (Homo sapiens) (UniProt P03372); assay: qHTS assay to identify small molecule antagonists of the estrogen receptor alpha (ER-alpha) signaling pathway (AID 743069; active means well fitted curve in the direction sought with a large enough effect in the signal ratio in the repeat runs, not every such curve was filed as active; inconclusive means weak or mixed curves, or effect the other way; inactive means no such curve, though single readings can be large or run the other way; the % refers to the signal ratio; further: potency means the concentration at half of the fitted maximal effect; on activity, negative = inhibition: on the % scale 0 is the no-effect control and ±100 the full control effect); settings: HEK293 ER-alpha-UAS-bla, beta-lactamase ratio, antagonist mode; activity, negative = inhibition: at 69.4 µM (top of the series) unless noted
# How it was run: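 Antagonist mode: compounds in DMSO were co-added with 17beta-estradiol to ER-alpha-bla HEK293 cells (2% charcoal-stripped serum) and left 18 h at 37C. Reporter inhibition was measured as FRET fluorescence after 2 h LiveBLAzer substrate at room temperature.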
# [5] = qHTS assay to identify small molecule antagonists of the estrogen receptor alpha (ER-alpha) signaling pathway - cell viability counter screen (AID 743074; calls by dose curve;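 further: HEK293 cells carrying ER-alpha-UAS-bla reporter stimulated with 17beta-estradiol; potency means the concentration at half of the fitted maximal effect; nearly all actives have a fitted effect of over 45% in size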)
# [6] = molecular target: Androgen receptor (Homo sapiens) (UniProt P10275); assay: qHTS assay to identify small molecule antagonists of the androgen receptor (AR) signaling pathway using the MDA cell line (AID 743042; further: on the % scale 0 is the no-effect control and ±100 the full control effect; nearly all actives have a fitted effect of over 55% in size); settings: MDA-kb2 AR-luc, MMTV luciferase, R1881 antagonist, 16 h; activity change, negative = inhibition: at 70.3 µM (top of the series)
# How it was run: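 Antagonist mode: compounds plus R1881 agonist added to MDA-kb2 AR-luc cells, incubated 16 h at 37C. Luciferase reporter luminescence quantified, with multiplexed CellTiter-Fluor readout for cell viability.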
# [7] = molecular target: Androgen receptor (Homo sapiens) (UniProt P10275); assay: qHTS assay to identify small molecule agonists of the androgen receptor (AR) signaling pathway using the MDA cell line (AID 743040; further: on the % scale 0 is the no-effect control and ±100 the full control effect; nearly all actives have a fitted effect of over 20% in size); settings: MDA-kb2 AR-luc cells, MMTV luciferase, 16 h; activity change: at 70.3 µM (top of the series), stronger effect = higher value unless noted
# How it was run: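 Luciferase agonist assay: 16 h compound exposure at 37C without CO2 in MDA-kb2 AR-luc cells, whose MMTV promoter responds to both AR and GR. Luminescence measured after 30 min room-temperature incubation with ONE-Glo.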
# [8] = molecular target: Estrogen receptor (Homo sapiens) (UniProt P03372); assay: qHTS assay to identify small molecule agonists of the estrogen receptor alpha (ER-alpha) signaling pathway (AID 743075; calls by dose curve;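 further: HEK293 GripTite cells with ER-alpha and UAS-driven beta-lactamase reporter; potency means the concentration at half of the fitted maximal effect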)
# Tags describe the fitted curve by direction and shape or compound fluorescence and quenching.
# UniProt P10275, sequence (P10275 whole entry, looked up): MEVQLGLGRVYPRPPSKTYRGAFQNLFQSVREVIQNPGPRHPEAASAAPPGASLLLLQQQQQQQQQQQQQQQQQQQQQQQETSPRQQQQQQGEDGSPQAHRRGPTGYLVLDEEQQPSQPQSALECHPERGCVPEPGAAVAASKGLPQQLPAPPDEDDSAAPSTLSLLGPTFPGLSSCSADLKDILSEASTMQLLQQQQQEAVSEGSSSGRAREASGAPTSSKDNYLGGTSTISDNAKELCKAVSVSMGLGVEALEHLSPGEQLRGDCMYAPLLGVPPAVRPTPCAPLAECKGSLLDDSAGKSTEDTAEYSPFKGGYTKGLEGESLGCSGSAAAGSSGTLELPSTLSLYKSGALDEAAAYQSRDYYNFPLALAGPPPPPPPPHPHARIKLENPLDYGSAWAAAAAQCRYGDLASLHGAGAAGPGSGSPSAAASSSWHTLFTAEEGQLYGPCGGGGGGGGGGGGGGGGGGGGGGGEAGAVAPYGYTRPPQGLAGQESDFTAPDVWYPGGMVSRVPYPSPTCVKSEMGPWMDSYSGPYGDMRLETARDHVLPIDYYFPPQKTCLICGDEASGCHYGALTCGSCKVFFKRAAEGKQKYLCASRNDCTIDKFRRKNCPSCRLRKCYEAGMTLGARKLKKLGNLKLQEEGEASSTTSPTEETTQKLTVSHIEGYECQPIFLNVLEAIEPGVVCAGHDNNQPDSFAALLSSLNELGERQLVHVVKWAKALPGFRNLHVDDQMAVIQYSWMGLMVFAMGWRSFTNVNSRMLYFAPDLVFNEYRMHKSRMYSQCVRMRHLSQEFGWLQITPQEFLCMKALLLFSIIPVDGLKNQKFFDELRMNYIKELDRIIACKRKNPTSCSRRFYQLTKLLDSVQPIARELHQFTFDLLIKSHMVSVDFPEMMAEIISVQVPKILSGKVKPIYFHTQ
# UniProt P03372, sequence (P03372 whole entry, looked up): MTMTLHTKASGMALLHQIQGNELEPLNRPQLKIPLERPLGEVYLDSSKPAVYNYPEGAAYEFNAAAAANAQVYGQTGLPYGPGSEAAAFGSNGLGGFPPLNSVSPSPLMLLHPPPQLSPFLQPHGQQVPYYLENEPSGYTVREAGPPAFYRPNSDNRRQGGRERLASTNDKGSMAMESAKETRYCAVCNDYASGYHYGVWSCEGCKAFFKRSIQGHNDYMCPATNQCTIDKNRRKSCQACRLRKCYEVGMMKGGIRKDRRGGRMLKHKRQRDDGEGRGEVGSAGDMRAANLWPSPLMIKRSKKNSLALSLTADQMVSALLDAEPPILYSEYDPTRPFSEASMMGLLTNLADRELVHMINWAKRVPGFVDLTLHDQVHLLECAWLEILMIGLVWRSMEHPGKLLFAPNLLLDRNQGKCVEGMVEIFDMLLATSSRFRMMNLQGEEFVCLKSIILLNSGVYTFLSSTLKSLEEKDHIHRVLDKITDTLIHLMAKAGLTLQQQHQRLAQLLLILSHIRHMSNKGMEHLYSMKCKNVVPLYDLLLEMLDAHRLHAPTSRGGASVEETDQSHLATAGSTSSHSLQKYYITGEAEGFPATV
structure (smiles),measurement,setting,value
CC(C)(O)CCC(C)(C)O,Potency,[1],"inconclusive [activator, single point]"
CCC1=C(C)CN(C(=O)NCCc2ccc(S(=O)(=O)NC(=O)NC3CCC(C)CC3)cc2)C1=O (centres undefined),Potency,[1],"inconclusive [rising, full curve, poor fit]"
same,Potency,[2],inactive
COc1cc2c(cc1OC)-c1cc(=Nc3c(C)cc(C)cc3C)n(C)c(=O)n1CC2,activation,[1],inconclusive: -25.1%
same,Potency,[2],"inconclusive [cytotoxic, single point]"
same,activation,[3],inconclusive: -8.96% [phenotype inactive]
same,Potency,[4],"inconclusive [rising, single point]"
same,Potency,[5],"inconclusive [cytotoxic, single point]"
CN1CCN(C2=Nc3ccccc3Sc3ccc(Cl)cc32)CC1,Potency,[1],"inconclusive [rising, full curve, poor fit]"
same,Potency,[6],inactive
CCCC(C)CO (centres undefined),Potency,[1],inactive
same,activity change,[7],inconclusive: -0.0552% [phenotype inactive]
O=c1[nH][nH]c2ccccc12,Potency,[1],"inconclusive [rising, full curve, poor fit]"
CC(C)COC(=O)c1ccccc1,activation,[1],inconclusive: 20.8%
COc1cc2c(N3CCN(C(=O)Nc4ccc(OC(C)C)cc4)CC3)ncnc2cc1OCCCN1CCCCC1,Potency,[1],"inconclusive [activator, single point]"
same,Potency,[2],active: 33.5 µM
same,activation,[3],inconclusive: -8.19% [phenotype inactive]
same,Potency,[4],inactive
same,Potency,[8],"inconclusive [activator, partial curve]"
